Experimental data as given in the BET-seq Pho4 binding data (Le et al. 2018).
Some of the results follow. These are noisy estimates, calculated here from bound and input reads.

biological target: T1, Pho4 (S. cerevisiae) (UniProt P07270); experiment: relative binding free energy (BET-seq); higher = weaker binding; details: reference: library average
T1 sequence: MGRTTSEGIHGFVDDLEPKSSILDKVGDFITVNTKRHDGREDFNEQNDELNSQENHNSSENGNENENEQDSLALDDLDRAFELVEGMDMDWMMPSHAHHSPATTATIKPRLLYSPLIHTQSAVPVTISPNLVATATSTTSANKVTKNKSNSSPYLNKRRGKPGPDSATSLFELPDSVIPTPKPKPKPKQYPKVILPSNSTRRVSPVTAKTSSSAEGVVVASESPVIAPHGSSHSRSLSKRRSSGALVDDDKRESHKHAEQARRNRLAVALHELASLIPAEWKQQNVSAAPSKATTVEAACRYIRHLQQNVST

| Sequence | relative binding free energy [kcal/mol] |
| --- | --- |
| GTTGGCACGTGGGTAG | -0.05 |
| ATCAGCACGTGGTGTG | -0.12 |
| TGGAACACGTGTTGTG | -0.07 |
| TTCTCCACGTGTATGG | 0.17 |
| GTGGTCACGTGAGAAA | 0.51 |
| TATCGCACGTGCGGGG | -0.28 |
| TTGCTCACGTGGGTAT | 0.13 |
| CGGCGCACGTGGATGA | 0.11 |
| TGATTCACGTGTCGGG | 0.39 |
| TCGGCCACGTGGGTTG | -0.25 |
| TATATCACGTGAGTGG | 0.38 |
| TTACTCACGTGGTGAT | 0.12 |
| AGTGCCACGTGGGTAA | -0.07 |
| TTTGGCACGTGGGTCT | -0.09 |
| AGGATCACGTGGCTGT | 0.06 |
| TTTTGCACGTGGTGTC | -0.05 |
| GTGGACACGTGGGAGA | -0.11 |
| AGACTCACGTGAGTTG | 0.44 |
| GAGTTCACGTGGTTTC | 0.24 |
| GTCGGCACGTGGTAGT | 0.01 |
| GTAATCACGTGGCTTG | 0.14 |
| ACGGGCACGTGGAGGA | -0.23 |
| CAATTCACGTGTTAGG | 0.18 |
| ATGGTCACGTGTATGG | 0.13 |
| GGGGCCACGTGTTGTC | 0 |

| Sequence | relative binding free energy [kcal/mol] |
| --- | --- |
| AATATCACGTGAGATG | 0.37 |
| GGAATCACGTGTTGGA | 0.18 |
| CTCAGCACGTGTGTGT | -0.04 |
| CTTAACACGTGAGGGT | 0.06 |
| TAGGTCACGTGCGTGT | 0.09 |
| GGCTGCACGTGGCGGT | -0.09 |
| GTTTGCACGTGGTGGG | -0.02 |
| GGTGCCACGTGGGTCA | -0.19 |
| GTGTGCACGTGAAGTA | 0.21 |
| TGGATCACGTGAGTGG | 0.32 |
| TTTAACACGTGGTTTC | -0.06 |
| GGGAACACGTGTGAGA | 0.24 |
| TGGGCCACGTGTTCTT | -0.02 |
| GTGATCACGTGGATGT | 0.09 |
| TCAGGCACGTGAGAAT | 0.31 |
| TGAGTCACGTGAGATA | 0.34 |
| AGAGACACGTGTGGCG | 0.04 |
| GGAGGCACGTGTAGAC | -0.01 |
| AATTTCACGTGCGTAG | 0.29 |
| GTCGTCACGTGTGGGG | 0.15 |
| GCACGCACGTGGTGGT | -0.16 |
| GGTGGCACGTGAGTGT | 0.29 |
| GTGGACACGTGCGGTG | -0.04 |
| TTTTACACGTGGCGGC | 0.07 |
| GTGGTCACGTGATGGG | 0.3 |

| Sequence | relative binding free energy [kcal/mol] |
| --- | --- |
| CCGGTCACGTGTGGGC | 0.25 |
| CGTGCCACGTGGGGAG | -0.19 |
| TTTTACACGTGGGCGT | -0.1 |
| TGTTGCACGTGATTAG | 0.08 |
| GTTGTCACGTGGGGTT | 0 |
| ACTTTCACGTGGGTCG | 0.11 |
| TCTGGCACGTGGGTAA | -0.17 |
| CGGCGCACGTGTGGTG | 0 |
| GTGTGCACGTGTTATT | -0.01 |
| ATTGTCACGTGGTACG | 0.06 |
| GTTTACACGTGCCGTG | 0.14 |
| GGATCCACGTGGTGGT | 0.06 |
| AGGATCACGTGCGTGG | 0.01 |
| AATGGCACGTGGTTAT | -0.03 |
| GTGGGCACGTGGAATA | 0.08 |
| GTGAGCACGTGTTTCT | 0.01 |
| TGTCTCACGTGGGTGT | 0.09 |
| TTATTCACGTGCGATG | 0.25 |
| GGTTGCACGTGGTCAG | -0.01 |
| ATTGGCACGTGCGTCA | -0.19 |
| TATGGCACGTGTGTAC | -0.19 |
| AAGGTCACGTGGTGTT | 0.09 |
| AGATTCACGTGAATGT | 0.46 |
| CGGTTCACGTGGAGCT | 0.26 |
| TGGGGCACGTGTGATT | 0.08 |

| Sequence | relative binding free energy [kcal/mol] |
| --- | --- |
| TTGAACACGTGAACGT | 0.42 |
| TTGGACACGTGATAGA | 0.11 |
| TTAGCCACGTGGGTGT | -0.15 |
| TCCGGCACGTGGGGGC | -0.27 |
| TGAGTCACGTGGAGGG | 0.19 |
| TAATTCACGTGGTCTA | 0.3 |
| TGTGGCACGTGTCTGC | -0.07 |
| AATTTCACGTGTGAAA | 0.24 |
| TCATTCACGTGAAGTG | 0.45 |
| AAGTGCACGTGTGCAT | 0.07 |
| ATCTGCACGTGGGAGG | -0.1 |
| TCGTTCACGTGTGAGG | 0.39 |
| TGCTTCACGTGTGTTT | 0.3 |
| TTTGTCACGTGCCTTT | -0.11 |
| TTTGACACGTGTAGAA | 0 |
| GTAGTCACGTGGGTAG | 0.05 |
| TGTAGCACGTGGGCGT | -0.23 |
| ATTGTCACGTGCTTTG | 0.12 |
| CGGGTCACGTGGAGAT | 0.15 |
| TTTGTCACGTGCATTA | 0.14 |
| GTGTGCACGTGGAAAT | 0.12 |
| TTGCACACGTGTGCGT | -0.08 |
| ATTGTCACGTGGACAG | -0.09 |
| GTAATCACGTGGCTGG | 0.24 |
| TTGCACACGTGGGTAA | -0.11 |

| Sequence | relative binding free energy [kcal/mol] |
| --- | --- |
| GGCTGCACGTGTGCTG | -0.05 |
| CGTCGCACGTGTGGGG | 0.1 |
| AGATCCACGTGTAGTT | 0.19 |
| CTGCGCACGTGGGGTT | -0.33 |
| ATTCGCACGTGTTTTT | -0.11 |
| GTGTTCACGTGCATCG | 0.31 |
| CATGACACGTGCGGGG | -0.08 |
| TGTGTCACGTGGTGTT | 0.02 |
| TGATACACGTGGAAAT | 0.28 |
| GGGGTCACGTGCCGTT | 0.09 |
| ACGTCCACGTGAGGGT | 0.26 |
| CTGCTCACGTGTTTGG | 0.2 |
| GAGCCCACGTGGGTGG | -0.18 |
| TGTTGCACGTGACATT | -0.03 |
| GTTGCCACGTGTTTTG | -0.11 |
| GGGGTCACGTGCTCGG | 0.05 |
| ATATGCACGTGAGTGA | -0.03 |
| GGTTGCACGTGTTTGG | 0.14 |
| TGTTTCACGTGGATAA | 0.25 |
| CGTTTCACGTGAGGGG | 0.39 |
| GTATTCACGTGGTGGT | 0.2 |
| CGTTGCACGTGTTGTC | -0.01 |
| ATGTGCACGTGTTGAC | -0.01 |
| TAGTCCACGTGTTGTA | 0 |
| AGAATCACGTGTGTGG | 0.2 |

| Sequence | relative binding free energy [kcal/mol] |
| --- | --- |
| TGAAACACGTGAAGGT | 0.15 |
| AGTGCCACGTGGGATT | -0.22 |
| GTCTTCACGTGTGGAG | 0.28 |
| CGTATCACGTGTAAGT | 0.35 |
| AGTTACACGTGTCGTA | 0.03 |
| TGTATCACGTGATGTA | 0.03 |
| TTGATCACGTGTTTTT | 0.22 |
| CGAGGCACGTGGTATT | -0.19 |
| GGAATCACGTGTTCTG | 0.22 |
| ATAAGCACGTGGATAG | -0.13 |
| TTTCGCACGTGCGATT | 0.02 |
| GAACTCACGTGAGGGT | 0.4 |
| GGCACCACGTGGGGGT | -0.27 |
| ATTTTCACGTGGAAGG | 0.29 |
| TTGTACACGTGAGTTG | 0.19 |
| AATTTCACGTGATGGA | 0.33 |
| AATTTCACGTGTTGAG | 0.21 |
| TGTGACACGTGTACTG | 0.04 |
| GGCGTCACGTGATGTC | 0.41 |
| ATTGTCACGTGCTAGT | -0.02 |
| AGTTGCACGTGAAGAT | 0.23 |
